Experimental data from PubChem BioAssay AID1963576 (National Center for Advancing Translational Sciences (NCATS), 2024).
Hit rate of the full screen: of about 46,000 compounds, about 60 (0.1%) were called active. Inconclusive results (about 3%) are left out. Calls follow the shape of the dose curve; as a rule, active = well fitted inhibition curve with a large enough effect; inconclusive = small, poorly fitted or top-dose-only effect; inactive = no such curve, though single readings can be large or run the other way. This is one part of the list.

assay: Primary qHTS assay for Inhibitors of ovarian cancer metastasis using an organotypic tumor microenvironment (TME) model.; also: nearly all actives have a fitted effect of over 65% in size; details: SKOV3ip1-GFP adhesion/invasion on 3D omental model, fluorescence; series mostly up to 45.8 µM; activity change, negative = inhibition: at the top concentration
Excerpt: PI: Ernst Lengyel MD., Ph.D. Department of Obstetrics and Gynecology, Section of Gynecologic Oncology University of Chicago Medicine, Chicago, Illinois. The tumor microenvironment (TME) is a key determinant of metastatic efficiency. We performed a quantitative high-throughput screen (qHTS) of diverse medicinal chemistry tractable scaffolds (44,420 compounds) and pharmacologically active small molecules (386 compounds) using a layered organotypic, robust assay representing the ovarian cancer metastatic TME. This 3D model contains primary human mesothelial cells, fibroblasts, and extracellular matrix, to which fluorescently labeled ovarian cancer cells are added. Initially, 100 compounds inhibiting ovarian cancer adhesion/invasion to the 3D model in a dose-dependent manner were identified. Of those, eight compounds were confirmed active in five high-grade serous ovarian cancer cell lines and were further validated in secondary in vitro and in vivo biological assays. […] Specifically, NCGC00117362 and PP-121 inhibited ovarian cancer adhesion, invasion, and proliferation, whereas milciclib inhibited ovarian cancer invasion and proliferation. […] To evaluate the clinical potential of NCGC00117362, structure - activity relationship studies were performed. […] The three compounds identified have promise as therapeutics for prevention and treatment of ovarian cancer metastasis.
PROTOCOL TABLE (as described by Inglese J, Shamu CE and Guy RK. 2007) SEQUENCE No. (e.g., 1, 2, 3, etc.); […] (e.g., Cells, Incubation, Reagent, etc.); VALUE; DESCRIPTION. 1; Cells; 4 uL; primary human omental fibroblast, black, clear bottom, low base, 1536-well Aurora assay plate. 2; Incubation; 48 hr; 37C. 3; Cells; 3 uL; 1,200 SKOV3ip1-GFP cells. 4; Compounds; 23nL; acoustic dispenser. 5; Incubation; 2 hr; room temperature. 6; Incubation; 16 hr; 37C. 7; Wash; 5 uL; 1x PBS. 8; Fixing; 5 uL; 4% paraformaldehyde (PFA). 9; Incubation; 15 min; room temperature 10; Wash, 5 uL; 1x PBS. 11; Detection; Fluorescence, excitation filter 488 nm, emission filter 509 nm. NOTES (numbers refer to Sequence numbers above) 1. For the 1,536-well format, 40 primary human omental fibroblasts and 400 mesothelial cells were seeded with 0.02 µg fibronectin and 0.02 µg collagen type I in 4 µL of growth media (2.3 mm2; Supplementary Fig. S1A). 2. Assay plates were incubated for 48 hours at 37 C. 3. After incubation, 1,200 SKOV3ip1-GFP were seeded in 3 µL of serum-free media (growth media minus FBS) on top of primary human omental cells. 4. Compounds or controls were added to each well immediately after the addition of the cancer cells. Compounds were screened in four doses (0.36-46 µmol/L), and the plates contained the positive control (Tomatine) in eight doses (0.035-75 µmol/L) and DMSO (equal volume controls) 5 - 6. The plates were incubated at room temperature for 2 hours and then at 37 degrees C for 16 hours. 7 - 10. Following incubation, the media were aspirated and each well washed with PBS (5 µL) and then fixed with 4% paraformaldehyde (PFA; 5 µL). After 15 minutes, the PFA solution was aspirated, PBS (5 µL) was added. 11. The number of GFP-labeled cells analyzed using a fluorescent cytometer TTP LabTech Acumen eX3 using 488 nm excitation filter and 509 nm emission filter. Data was normalized to the DMSO treated for negative and Tomatine treated wells for positive control. REFERENCES: Inglese J, Shamu CE and Guy RK, Reporting data from high throughput screening of small molecule libraries, Nature Chemical Biology, 2007, 3(8): 438-441. doi.org/10.1038/nchembio0807-438. Yasgar A, Shinn P, Jadhav A, Auld DS, Michael S, Zheng W, Austin CP, Inglese J and Simeonov A, Compound Management for Quantitative High-Throughput Screening. J. Assoc. Lab. Auto., 2008, 13: 79-89. doi: 10.1016/j.jala.2007.12.004.

Activity change, negative = inhibition, inactive:
CC(=O)N1CCCc2cc(S(=O)(=O)N(C)CC(=O)Nc3ccc(C(C)C)cc3)ccc21 3.8%
COc1ccc(CNC(=O)CCC2N=C3c4ccccc4N=C(SCC(=O)NCCc4ccc(OC)c(OC)c4)N3C2=O)cc1 (configuration not stated) 18.4%
COc1cccc(CNC(=O)c2sc3nc[nH]c(=O)c3c2C)c1 0.391%
CC(C)OC(=O)c1c(NC(=O)c2cccc(C(F)(F)F)c2)sc2c1CCCC2 -2.78%
COc1ccc(C2Nc3ccccc3-c3cc(C)nn32)c(OC)c1 (configuration not stated) 2.39%
CCOc1ccc(NC(=O)c2cc(-c3ccc(C)c(F)c3)on2)c([N+](=O)[O-])c1 11.3%
Cc1cccc(C)c1OCCn1c(CCNC(=O)C2CCCCC2)nc2ccccc21 -10.4%
COc1cccc(N2CCN(C(=O)c3cnc4c(-c5ccc(F)cc5)c(C)nn4c3C)CC2)c1 -4.28%
CN[C@H]1[C@@H](O[C@@H]2[C@H](O[C@@H]3[C@@H](O)[C@@H](O)[C@@H](N=C(N)N)[C@@H](O)[C@@H]3N=C(N)N)O[C@H](C)[C@@]2(O)C=O)O[C@@H](CO)[C@@H](O)[C@H]1O -0.881% [at 15.1 µM]
COc1ccccc1CNC(=O)C(=O)NCC(c1ccco1)S(=O)(=O)c1ccc(F)cc1 (configuration not stated) 1.95%
COc1ccc(C)c2sc(NC(=O)c3ccc(S(=O)(=O)N4CCOCC4)cc3)nc12 1.55%
CC1=C(C(=O)Nc2cc3cn[nH]c3cc2F)C(c2ccc(Cl)cc2F)N=C(c2ccnc(Cl)c2)N1 (configuration not stated) 16.7%
CC(C)(C)c1ccc(C(=O)NCC(c2ccco2)S(=O)(=O)c2ccccc2)cc1 (configuration not stated) 0.328%
COC(=O)c1ccccc1NS(=O)(=O)c1cc2c3c(c1)CC(=O)N3CCC2 -9.54%
Cc1ccc(-n2nc(C)c3c(C(=O)Nc4ccccc4C(F)(F)F)cc(C)nc32)cc1 1.19%
Cc1ccc2c(c1)C(c1ccccc1)N(C(=O)COc1ccc(Cl)cc1Cl)CC(=O)N2 (configuration not stated) 2.22%
CC1=C(C(=O)Nc2ccccc2)C(c2ccccn2)n2nc(SCc3ccccc3)nc2N1 (configuration not stated) -2.6%
CCOc1ccc2nc(N(Cc3cccnc3)C(=O)c3cccs3)sc2c1 5.72%
COc1cccc(C(=O)Nc2nc(-c3nnn(-c4ccccc4C(F)(F)F)c3C)ns2)c1 -16%
Cc1c(Cl)ccc2sc(N3CCN(C(=O)CCS(=O)(=O)c4ccc(F)cc4)CC3)nc12 -4.57%
CCCCCOc1ccc(NC(=O)Cn2c(-c3nonc3N)nc3ccccc32)cc1 7.05%
COc1ccc(-c2nc3ccccc3n2Cc2ccccc2)cc1 0.94%
CCSc1nc(-c2cccc(Cl)c2)nc2c1Cc1c(CO)cnc(C)c1O2 7.98%
COc1cccc(CNC(=O)Cn2nc(C)n3c(cc4cc(C)ccc43)c2=O)c1OC -1.07%
CCCCN1C(=O)C(O)(CC(=O)c2ccc(CC)cc2)c2cc(Br)ccc21 (configuration not stated) -0.622%
Cc1ccc(Nc2c(-c3cccnc3)nc3ccc(C)cn23)cc1 -1.82%
Cc1cc(C)c(NC(=O)CSc2nc(=O)n(Cc3ccncc3)c3c2CCC3)c(C)c1 2.23%
CCOCCCNC(=O)C(c1ccc(C)cc1)N(Cc1ccc2c(c1)OCO2)C(=O)c1ccccc1O (configuration not stated) 4.63%
O=C(CSc1nnc2scc(-c3ccc(Cl)cc3)n12)Nc1ccc(F)cc1 -7.8%
Cc1ccc(NC(=O)n2ncc3c(C)cccc32)c(C)c1 -0.431%
CCOC(=O)N1CCc2c(sc(NCc3cc(OC)ccc3OC)c2C(=O)Nc2cc(OC)ccc2OC)C1 -17.8%
O=C(NC1CCCCC1)c1ccc(CSc2nc3ccncc3n2Cc2cccc(F)c2)cc1 -2.37%
CCc1ccc(CNC(=O)c2ccc3c(c2)c(C)c(C)n3Cc2ccccc2)cc1 -1.78%
O=C(CSc1nc2c([nH]c3ccccc32)c(=O)n1-c1ccccc1)Nc1cccc(C(F)(F)F)c1 3.39%
Cc1ccc(NC(=O)CCn2cccn2)c(C)c1 2.22%
Cc1ccc(Cn2c(=O)n(CCc3ccccc3)c(=O)c3sc4ccccc4c32)cc1 -4%
COc1ccc(N2CCN(C(=O)Cn3cnc4sc(C)c(S(=O)(=O)N5CCCCC5)c4c3=O)CC2)cc1 -4.46%
COC(=O)c1cc(-c2ccc(Cl)cc2)c2c(=O)[nH]c(=O)n(C)c2n1 3.5%
CCOCCCNC(=O)C1CCN(c2nc3ccc(C)cc3[nH]2)CC1 20%
C=CCc1ccc(O)c(-c2ccc(O)c(CC=C)c2)c1 18.1%
COc1cc([C@@H]2c3cc4c(cc3[C@H](O)[C@H]3COC(=O)[C@H]23)OCO4)cc(OC)c1OC 35.6%
CC1CCCCN1Cc1nc2c(c(=O)n(C)c(=O)n2C)n1Cc1ccc(Br)cc1 (configuration not stated) -3.08%
Cc1ccc(NC(=O)CCn2nc(C)c3c(C)n(-c4ccccc4)nc3c2=O)cc1Cl -3.5%
COc1cccc(NC(=O)CSc2cc(C)c3ccccc3n2)c1 -2.87%
COc1ccccc1-c1nc(CNC(=O)NC2CCCCC2)c(C)o1 -11.8%
CCCOc1ccc(NC(=O)CC2C(=O)N(c3cccc(OC)c3)C(=O)N2CCc2ccncc2)cc1 (configuration not stated) 8.59%
CC(C)c1ccc(NC(=O)c2cn(C3CCCC3)c(=O)c3c2c2ccccc2n3C)cc1 -2.27%
CC(C)C[C@H](NC(=O)[C@@H](O)[C@H](N)Cc1ccccc1)C(=O)O 0.794%
Cc1cc(C)cc(C(=O)Nc2ccc(-c3nc4ncccc4o3)cc2)c1 -5.6%
CCN1CCSc2ccc(C(=O)NC(C)c3ccccc3)cc21 (configuration not stated) -23.1%
O=C(NCc1ccc(Cl)cc1)c1cc(S(=O)(=O)N2CCCCC2)c[nH]1 9.41%
Cc1c2cnn(CC(=O)N3CCN(c4ccc(F)cc4)CC3)c(=O)c2c(C)n1Cc1ccc(F)cc1 -8.27%
Cc1nn(CCCC(=O)NCc2ccc(F)cc2)c(=O)c2c1sc1ccccc12 -1.27%
CCOc1ccc(N2CC(c3nc4ccccc4n3Cc3cccc(Cl)c3)CC2=O)cc1 (configuration not stated) 4.12%
Cc1ccc(-n2ncc(C(=O)N3CCN(c4cccc(C)c4)C(C)C3)c2C2CCN(C(=O)OC(C)(C)C)CC2)cc1 (configuration not stated) 4.15%
Cc1ccc(CNC(=O)Cn2nc(C)n3cccc3c2=O)cc1 -21.7%
Cc1c(NC(=O)c2cc(-c3ccc(Cl)c(Cl)c3)on2)c(=O)n(-c2ccccc2)n1C 2.27%
CCOC(=O)c1cc(-c2ccccc2)n(-c2cccc(C(=O)Nc3ccc(F)c(F)c3)c2)c1C 2.8%
COc1c(C)cc(S(=O)(=O)NCCc2c(C)[nH]c3ccccc23)c(C)c1C 8.76%
Cc1ccc(NC(=O)Nc2nnc(N(CC(C)C)CC(C)C)s2)cc1Cl -3.86%
COc1ccc(N2CCN(C(=O)CCc3c(C)nn(-c4ccc(N5CCCC5)nn4)c3C)CC2)cc1 -0.334%
Cc1ccc(NC(=O)c2cnn3c(C(F)F)cc(-c4ccccc4)nc23)c(C)c1 27.6%
COc1ccc(OC)c(NC(=O)C2CCCN(S(=O)(=O)c3c(C)nn(C)c3C)C2)c1 (configuration not stated) -17%
CCOC(=O)c1ccc(NC(=O)CCCc2nc(-c3ccccc3Cl)no2)cc1 1.33%
CCOc1ccc(-c2cc(NC(=O)Nc3cccc(C(C)=O)c3)c(C(=O)OC)s2)cc1 -16.2%
CCOc1ccc(S(=O)(=O)NCC(c2ccco2)S(=O)(=O)c2cccs2)cc1 (configuration not stated) -1.32%
COc1ccc(NC(=O)C2=C(C)Nc3ncnn3C2c2ccc(O)cc2)cc1 (configuration not stated) -27.6%
O=C(O)c1ccc2c(c1)ncn2-c1ccc(F)c(F)c1 -7.07%
CCOC(=O)CSc1nc2ccc(NC(=O)c3ccc(C)cc3)cc2s1 -5.85%
CCc1ccc(CNC(=O)Cc2ccc(NC(=O)N3CCSc4ncccc43)cc2)cc1 7.07%
CCOc1ccc(-c2nonc2NC(=O)c2oc3cc(C)ccc3c2C)cc1 -4.79%
CCCCSCCCNC(=O)CN1C(=O)c2cccnc2Oc2ccc(Cl)cc21 -13.5%
Cc1ccc(C)c(NC(=O)c2ccc3c(O)c(S(=O)(=O)c4ccc(Cl)cc4)c(=O)[nH]c3c2)c1 -8.18%

outcome, inactive:
COc1ccc(NC(=O)Cn2ccn(-c3ccc(F)c(F)c3)c(=O)c2=O)cc1Cl
O=C1CC(c2ccccc2)Sc2ccccc2N1Cc1ccccc1F (configuration not stated)
COc1ccc(C(=O)Oc2c(Sc3ccccc3)c(C)nn2-c2ccccc2)c(OC)c1
CCN(CC)S(=O)(=O)c1ccc2c(c1)N(CC(=O)Nc1ccc(Cl)cc1)C(=O)C1CCCN21 (configuration not stated)
COc1cccc(-c2nc(Cn3c(=O)cc(C)c4c(C)nn(-c5ccccc5)c43)c(C)o2)c1OC
CCCN(C(=O)c1cc2c(=O)oc3ccc(C)cc3c2s1)c1ccc(OCC)cc1
CCc1nn(CC(=O)N2CCN(c3cccc(C)c3)C(C)C2)c(=O)c2cc3sccc3n12 (configuration not stated)
COc1ccccc1C(=O)NC1(C(F)(F)F)NC(=O)N(CCc2ccccc2)C1=O (configuration not stated)
Cc1ccc(N(C)C(=O)Cn2ncc3c([nH]c4ccccc43)c2=O)cc1C
COc1ccc(NC(=O)CCc2c(C)nn(-c3ccc(N4CCCC4)nn3)c2C)cc1Cl
COCCn1c(C)cc(O)c(C(c2ccccc2)N2CCN(c3ccccc3F)CC2)c1=O (configuration not stated)
O=C(CSc1cn(CCNC(=O)c2ccccc2F)c2ccccc12)Nc1ccc2c(c1)OCCO2
CCS(=O)(=O)c1ccc(C(=O)N2CCN(c3nc4c(OC)ccc(C)c4s3)CC2)cc1
CC(Nc1ccc(-c2nc(-c3cccnc3)no2)cc1[N+](=O)[O-])c1ccccc1 (configuration not stated)
COc1ccc(NC(=O)c2c(-c3ccc(C)cc3)nnc3ccccc23)cc1OC
O=C(Cn1ncc2ccsc2c1=O)N1CCN(c2ccc(Cl)cc2)CC1
CCOc1ccc2nc(NC(=O)c3cc(=O)c4ccc(C)cc4o3)sc2c1
COc1ccccc1CNC(=O)CCn1c(=O)c2ccccc2n(CC(=O)Nc2cccc(Cl)c2)c1=O
COc1cccc(N2CCN(C(=O)C(CCSC)NS(=O)(=O)c3ccc4c(c3)oc(=O)n4C)CC2)c1 (configuration not stated)
